# Data published in PubChem BioAssay AID540317 (National Center for Advancing Translational Sciences (NCATS), 2011).
# The campaign covered roughly 390,000 compounds. About 2,200 (0.56%) were called active. Inconclusive means that the source gave no clear call. Such entries were picked first, then a sample of the others. The call rests on the fitted dose curve; in most records, active means well fitted inhibition curve with a large enough effect; inconclusive means small, poorly fitted or top-dose-only effect; inactive means no such curve, though single readings can be large or run the other way. Where the call is inconclusive, the potency comes from a doubtful curve fit.
# Biological target: Chromobox protein homolog 1 (Homo sapiens) (UniProt P83916)
# Chain of UniProt P83916 (P83916 whole entry, looked up): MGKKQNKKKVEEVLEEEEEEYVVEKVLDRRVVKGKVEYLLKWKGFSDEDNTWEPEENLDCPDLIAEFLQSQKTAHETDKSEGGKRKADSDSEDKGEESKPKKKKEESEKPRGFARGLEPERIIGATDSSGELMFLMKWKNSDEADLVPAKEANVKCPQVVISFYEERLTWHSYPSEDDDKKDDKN
# Experiment: HTS for Inhibitors of HP1-beta Chromodomain Interactions with Methylated Histone Tails; further: nearly all actives have a fitted effect of over 70% in size
# Settings: AlphaScreen HP1-beta / biotin-H3K9me3 peptide binding; series mostly up to 114 µM; activity change, negative = inhibition: at the top concentration
# Summary of the method: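 AlphaScreen: HP1-beta (50 nM) preformed 30 min with biotin-H3(1-18)K9me3 peptide (50 nM) in PBS pH 7.4, 0.01% Tween-20. Compound added for 30 min at RT, then streptavidin donor/nickel chelate acceptor beads (10 ug/mL) for 30 min.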
# Potency means the concentration at half of the fitted maximal effect; tags describe the fitted curve by direction and shape.
Compound,Potency,"activity change, negative = inhibition"
Cc1cc(-c2n[nH]c(=S)n2/N=C/c2sccc2C)n[nH]1,"inconclusive: 39.8 µM [inhibitor, single point]",
COc1ccc(NC2CCCCC2NS(=O)(=O)c2ccc(C)cc2)cc1 (centres undefined),"inconclusive: 56.2 µM [inhibitor, partial curve, poor fit]",
CCCCOCC(O)Cn1c(C)nc2ccccc21 (centres undefined),"inconclusive: 56.2 µM [inhibitor, partial curve]",
CN(C)c1ccc(C(CNS(=O)(=O)c2ccccc2)N2CCc3ccccc32)cc1 (centres undefined),"inconclusive: 17.8 µM [inhibitor, full curve]",
CCN1CCN(c2cc(C)c3cc(NC(=S)N4CCOCC4)ccc3n2)CC1,,inactive: 10.8% [at 57 µM]
O=c1[nH]c(NC2CCCCC2)nnc1Cc1ccccc1,,inactive: 24.2%
COc1ccc2c(c1)-c1nc(/N=C/c3c(O)ccc4ccccc34)sc1CC2,"inconclusive: 44.7 µM [inhibitor, partial curve, poor fit]",
Cc1ccc2c(N)c(C)ccc2c1,"inconclusive: 70.8 µM [inhibitor, single point]",
COc1ccc(CN2CCN(S(=O)(=O)c3ccc(NC(C)=O)cc3)CC2)cc1,"inconclusive: 17.8 µM [inhibitor, full curve]",
CC(C)(C)NC(=O)NC(=O)CN1CCN(c2ccc(O)cc2)CC1,"inconclusive: 89.1 µM [inhibitor, single point]",
N#Cc1c(Cc2cccc3ccccc23)nn(CCO)c1N,,inactive: 24.6%
O=C(O)c1cc(-c2ccc(/C=N/Nc3ccc(Cl)cc3)o2)ccc1Cl,,inactive: -1.97%
CCOC(=O)c1c(NC(=O)COC(=O)CCNS(=O)(=O)c2ccccc2)sc(C(=O)NC)c1C,,inactive: 21.5%
COc1cc(/C=C2/NC(=O)N(CC(=O)Nc3cccc(C)c3)C2=O)ccc1OCC(N)=O,"inconclusive: 7.08 µM [inhibitor, full curve, poor fit]",
COc1cc(OC)c(OC)cc1CN1CCN(C(=O)c2cccc3ccccc23)CC1,"inconclusive: 17.8 µM [inhibitor, full curve]",
CCC(=O)Nc1ccc(NC(=O)CSc2nnnn2CC)cc1C,,inactive: 58.8%
CCCCn1c(N)c(N(CC(C)C)C(=O)c2oc3ccc(OC)cc3c2C)c(=O)[nH]c1=O,"inconclusive: 39.8 µM [inhibitor, single point]",
NC(=S)N=Nc1c(O)n(CCCl)c2ccccc12,,inactive: 31.7%
COc1cc(/C=N/Nc2cccc(C)c2)ccc1OC(=O)c1cccs1,,inactive: 14.7%
CCOC(=O)C1CCN(C(=O)COC(=O)c2oc3ccccc3c2C)CC1,,inactive: 8.17%
CCCN(CCO)Cc1ccc(Br)cc1,"inconclusive: 89.1 µM [inhibitor, single point]",
CC1=CN2C(=N)/C(=C/c3ccc(Sc4ccc(Cl)cc4)o3)C(=O)N=C2S1,,inactive: 7.25%
O=C(NCC1CCCO1)NC1CCCCC1 (centres undefined),"inconclusive: 89.1 µM [inhibitor, single point]",
CC1=NN(c2ccccc2)C(=O)/C1=C\c1sccc1C,"inconclusive: 3.55 µM [inhibitor, full curve, poor fit]",
C=CCn1c(SCC(=O)NCCCC)nc2scc(-c3ccco3)c2c1=O,"inconclusive: 25.1 µM [inhibitor, partial curve, poor fit]",

Compound,Potency,"activity change, negative = inhibition"
CC(=O)c1cccc(NC(=O)c2cc(=O)[nH]c3ccc(S(=O)(=O)N4CCOCC4)cc23)c1,,inactive: 14.7%
CCN(CC(=O)N1CCCC1)S(=O)(=O)c1ccc(OC)cc1,,inactive: 59.4%
CCOc1ccccc1N1CC(C(=O)NC2CCCCCC2)CC1=O (centres undefined),,inactive: 20%
COC(=O)c1ccccc1CSc1nsc(/C=C/N(C)C)c1C#N,"inconclusive: 28.2 µM [inhibitor, partial curve]",
CCOc1ccc(NC(=O)N2CCN(S(=O)(=O)c3ccc4c(ccn4C)c3)CC2)cc1,,inactive: -6.85% [at 57 µM]
COc1ccc(OCc2cc(C(=O)N(C)CC3CCCCO3)no2)c(Cl)c1 (centres undefined),,inactive: 20.5%
CCc1ccc(C(=O)c2cn(CC(=O)Nc3ccc(F)cc3)c3ccc(OC)cc3c2=O)cc1,,inactive: 37.1%
CCSc1nnc2ccc(-c3ccc(OC)c(OC)c3)nn12,,inactive: -16.4% [at 57 µM]
O=C(NCc1ccc2c(c1)OCO2)Nc1ccc2nsnc2c1,,inactive: 38.4%
Cc1ccc(Cl)cc1NC(=O)C(C)n1nnc2sc(-c3ccccc3)cc2c1=O (centres undefined),"inconclusive: 7.08 µM [inhibitor, full curve, poor fit]",
CC(=O)c1sc2nsc(SCCN3CCOCC3)c2c1N,active: 79.4 µM,
O=C(COc1ccc2oc3c(c2c1)CCCC3)Nc1ccc(Br)cc1,,inactive: 21.1%
Cc1cc(C=O)c(C)n1-c1ccc(NC2CCCC2)c([N+](=O)[O-])c1,active: 31.6 µM,
Cc1ccc(-c2csc3nc[nH]c(=O)c23)cc1C,,inactive: 38.3%
Cc1ccc(S(=O)(=O)N2CCOCC2)cc1NC(=O)COC(=O)CCC(=O)c1ccc(F)cc1,,inactive: 15.9%
COc1ccc(C)cc1NC(=O)CN1CCN(c2ccccc2F)CC1,,inactive: 21.1%
Cc1ccc(OCCN(C)C)c([N+](=O)[O-])c1,"inconclusive: 31.6 µM [inhibitor, partial curve, poor fit]",
COc1ccc(NC2c3ccccc3C(=O)N2Cc2ccc3c(c2)OCO3)cc1 (centres undefined),"inconclusive: 39.8 µM [inhibitor, partial curve]",
Cc1ccc(C(=O)/C=C/C(=O)c2ccc(C)cc2)cc1,"inconclusive: 8.91 µM [inhibitor, partial curve, poor fit]",
COc1ccc(CN(C(=O)/C=C/c2ccco2)C2CCS(=O)(=O)C2)cc1OC (centres undefined),,inactive: 23.4%
CCn1cc(C(=O)NCc2ccco2)c(=O)c2ccc(C)nc21,,inactive: 16.2%
Cn1cccc1/C=C1\SC(=S)N(NC(=O)c2ccccc2O)C1=O,"inconclusive: 39.8 µM [inhibitor, partial curve]",
CCCN(CC(=O)Nc1ccccc1C)C(=O)c1ccc(N2CCCCCC2)c([N+](=O)[O-])c1,"inconclusive: 39.8 µM [inhibitor, partial curve]",
O=C(CN1CCOCC1)Nc1ccc2c(c1)OCCO2,"inconclusive: 15.8 µM [inhibitor, full curve, poor fit]",
Cc1ccc(-n2c(SCC(=O)Nc3ccc4c(c3)OCO4)nnc2-c2ccoc2C)cc1,"inconclusive: 39.8 µM [inhibitor, single point]",

Compound,Potency,"activity change, negative = inhibition"
Nc1ccc(SCc2cccnc2)cc1,,inactive: -1.91%
CCn1c2ccccc2c2cc(CN3CCN(Cc4ccccc4F)CC3)ccc21,"inconclusive: 8.91 µM [inhibitor, partial curve, poor fit]",
CCc1ccc(NCc2cc3cc4c(cc3n(CC(=O)Nc3ccc(C)cc3)c2=O)OCO4)cc1,,inactive: 32.3%
O=C(Nc1ccc(Cl)cn1)c1cccc(S(=O)(=O)N2CCCCC2)c1,"inconclusive: 89.1 µM [inhibitor, single point]",
N#Cc1nc(-c2ccc(F)cc2)oc1N1CCCCC1,"inconclusive: 35.5 µM [inhibitor, partial curve]",
Cc1nn(Cc2ccc(F)cc2)c2sc(C(=O)Nc3ccc(N4CCOCC4)cc3N3CCOCC3)cc12,"inconclusive: 25.1 µM [inhibitor, single point]",
N[C@H](CSCc1ccccc1)C(=O)Nc1ccc([N+](=O)[O-])cc1,"inconclusive: 79.4 µM [inhibitor, partial curve, poor fit]",
CS(=O)(=O)C1=NSC2=NC(=O)/C(=C\c3cccn3-c3ccc(Cl)cc3)C(=N)N21,"inconclusive: 70.8 µM [inhibitor, partial curve]",
Cc1ccc(-n2nc(C)c(NC(=O)CCl)c2C)cc1,,inactive: 26.1%
COc1cc(C2c3c([nH]c(=O)[nH]c3=O)Nc3ccc4ccccc4c32)ccc1O (centres undefined),"inconclusive: 89.1 µM [inhibitor, single point]",
COc1ccc(C(=O)N2CCN(Cc3ccccc3C)CC2)cc1OC,"inconclusive: 14.1 µM [inhibitor, full curve]",
N#Cc1nc(-c2cccs2)oc1NCc1ccc(Cl)cc1,"inconclusive: 20 µM [inhibitor, full curve]",
O=C(O)/C=C/c1ccc([N+](=O)[O-])o1,active: 50.1 µM,
Nc1nc(-c2ccccc2)c(N=Nc2cccc3ccccc23)s1,"inconclusive: 10 µM [inhibitor, full curve, poor fit]",
CCOC(=O)Cc1ccc(NC(=O)N2CCOc3ccc(C)cc32)cc1,,inactive: 38.6%
O=C(Nc1ccccc1)c1nnsc1S(=O)(=O)c1ccc(Cl)cc1,"inconclusive: 50.1 µM [inhibitor, partial curve, poor fit]",
N#Cc1c(NC(=O)c2ccco2)sc2c1CCC2,"inconclusive: 44.7 µM [inhibitor, partial curve]",
Cc1ccc(Nc2c(-c3c[nH]c4ccccc34)nc3cc(C)ccn23)cc1,"inconclusive: 20 µM [inhibitor, partial curve, poor fit]",
Cc1ccc2cc(C=C(C#N)C#N)c(N3CCCCC3)nc2c1,"inconclusive: 89.1 µM [inhibitor, single point]",
COc1ccc(-c2nn3c(=O)cc(CN4CCN(C(=O)c5ccc(C(C)(C)C)cc5)CC4)nc3s2)cc1,,inactive: 12.5% [at 57 µM]
CCOC(=O)CC(NS(=O)(=O)c1ccc2[nH]c3c(c2c1)CCCC3)c1ccccc1Cl (centres undefined),"inconclusive: 44.7 µM [inhibitor, partial curve]",
Cc1cccc(NC(=O)c2oc3ccccc3c2NC(=O)Cc2coc3c(C)c(C)ccc23)c1,,inactive: 20.2%
CC1(C)CC2(CC(c3ccccc3F)c3cc(Cl)c(O)cc3O2)NC(=S)N1 (centres undefined),"inconclusive: 70.8 µM [inhibitor, single point]",
Cc1ccc(C(=O)O)cc1-c1ccc(/C=C2/NC(=O)N(c3ccccc3)C2=O)o1,"inconclusive: 56.2 µM [inhibitor, single point]",
